# Source: the supplement of paper PMC8728848
# This is one part of the list.
# B1: Siglec-9 (Homo sapiens), Q9Y336 (protein)
# chain: MLLLLLPLLWGRERAEGQTSKLLTMQSSVTVQEGLCVHVPCSFSYPSHGWIYPGPVVHGYWFREGANTDQDAPVATNNPARAVWEETRDRFHLLGDPHTKNCTLSIRDARRSDAGRYFFRMEKGSIKWNYKHHRLSVNVTALTHRPNILIPGTLESGCPQNLTCSVPWACEQGTPPMISWIGTSVSPLDPSTTRSSVLTLIPQPQDHGTSLTCQVTFPGASVTTNKTVHLNVSYPPQNLTMTVFQGDGTVSTVLGNGSSLSLPEGQSLRLVCAVDAVDSNPPARLSLSWRGLTLCPSQPSNPGVLELPWVHLRDAAEFTCRAQNPLGSQQVYLNVSLQSKATSGVTQGVVGGAGATALVFLSFCVIFVVVRSCRKKSARPAAGVGDTGIEDANAVRGSASQGPLTEPWAEDSPPDQPPPASARSSVGEGELQYASLSFQMVKPWDSRGQEATDTEYSEIKIHR
# Assays:
# Assay in all cases: glycan array binding signal (z-score within array); higher = stronger binding
# Conditions in all cases: glycan notation: IUPAC condensed, linker removed
# [1] = biological target: Fuc(a1-2)Gal(b1-4)[Fuc(a1-3)]GlcNAc
# In short: (§1)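 Glycan array data came from 3228 arrays in the Consortium for Functional Glycomics database, and only arrays with an available protein sequence were kept. Glycan names were put into IUPAC-condensed notation, and columns mapping to the same glycan were averaged. The binding signal is a within-array Z-score, averaged across arrays of one protein sequence run at different concentrations or buffers and across linkers. A negative Z-score can be read as non-binding.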
# [2] = biological target: Fuc(a1-2)Gal(b1-4)[Fuc(a1-3)]GlcNAc(b1-2)Man(a1-3)[Fuc(a1-2)Gal(b1-4)[Fuc(a1-3)]GlcNAc(b1-2)Man(a1-6)]Man(b1-4)GlcNAc(b1-4)[Fuc(a1-6)]GlcNAc
# In short: as §1
# [3] = biological target: Fuc(a1-2)Gal(b1-4)[Fuc(a1-3)]GlcNAc(b1-2)[Fuc(a1-2)Gal(b1-4)[Fuc(a1-3)]GlcNAc(b1-4)]Man(a1-3)[Fuc(a1-2)Gal(b1-4)[Fuc(a1-3)]GlcNAc(b1-2)Man(a1-6)]Man(b1-4)GlcNAc(b1-4)GlcNAc
# In short: as §1
# [4] = biological target: Fuc(a1-2)Gal(b1-4)[Fuc(a1-3)]GlcNAc(b1-3)Gal(b1-4)[Fuc(a1-3)]GlcNAc
# In short: as §1
# [5] = biological target: Fuc(a1-2)Gal(b1-4)[Fuc(a1-3)]GlcNAc(b1-3)Gal(b1-4)[Fuc(a1-3)]GlcNAc(b1-3)Gal(b1-4)[Fuc(a1-3)]GlcNAc
# In short: as §1
# [6] = biological target: Fuc(a1-2)Gal(b1-4)[Fuc(a1-3)]GlcNAc(b1-3)GalNAc
# In short: as §1
# [7] = biological target: Fuc(a1-2)Gal(b1-4)[Fuc(a1-3)]GlcNAc(b1-3)[Neu5Ac(a2-6)Gal(b1-4)GlcNAc(b1-6)]Gal(b1-4)Glc
# In short: as §1
# [8] = biological target: Fuc(a1-2)Gal3S(b1-4)GlcNAc
# In short: as §1
# [9] = biological target: Fuc(a1-2)Gal6S(b1-3)GlcNAc
# In short: as §1
# [10] = biological target: Fuc(a1-2)Gal6S(b1-3)GlcNAc6S
# In short: as §1
# Fuc(a1-2)Gal6S(b1-4)Glc = biological target: Fuc(a1-2)Gal6S(b1-4)Glc
# In short: as §1
# [11] = biological target: Fuc(a1-2)Gal6S(b1-4)Glc6S
# In short: as §1
# Fuc(a1-2)[Gal(a1-3)]Gal = biological target: Fuc(a1-2)[Gal(a1-3)]Gal
# In short: as §1
# [12] = biological target: Fuc(a1-2)[Gal(a1-3)]Gal(b1-3)GalNAc
# In short: as §1
# [13] = biological target: Fuc(a1-2)[Gal(a1-3)]Gal(b1-3)GalNAc(b1-3)Gal(a1-4)Gal(b1-4)Glc
# In short: as §1
# [14] = biological target: Fuc(a1-2)[Gal(a1-3)]Gal(b1-3)GlcNAc
# In short: as §1
# [15] = biological target: Fuc(a1-2)[Gal(a1-3)]Gal(b1-3)GlcNAc(b1-2)Man(a1-3)[Fuc(a1-2)[Gal(a1-3)]Gal(b1-3)GlcNAc(b1-2)Man(a1-6)]Man(b1-4)GlcNAc(b1-4)GlcNAc
# In short: as §1
# [16] = biological target: Fuc(a1-2)[Gal(a1-3)]Gal(b1-3)GlcNAc(b1-2)Man(a1-3)[Fuc(a1-2)[Gal(a1-3)]Gal(b1-3)GlcNAc(b1-2)Man(a1-6)]Man(b1-4)GlcNAc(b1-4)[Fuc(a1-6)]GlcNAc
# In short: as §1
# [17] = biological target: Fuc(a1-2)[Gal(a1-3)]Gal(b1-3)GlcNAc(b1-3)GalNAc
# In short: as §1
# [18] = biological target: Fuc(a1-2)[Gal(a1-3)]Gal(b1-3)GlcNAc(b1-6)GalNAc
# In short: as §1
# [19] = biological target: Fuc(a1-2)[Gal(a1-3)]Gal(b1-4)Glc
# In short: as §1
# [20] = biological target: Fuc(a1-2)[Gal(a1-3)]Gal(b1-4)GlcNAc
# In short: as §1
# [21] = biological target: Fuc(a1-2)[Gal(a1-3)]Gal(b1-4)GlcNAc(b1-2)Man
# In short: as §1
# [22] = biological target: Fuc(a1-2)[Gal(a1-3)]Gal(b1-4)GlcNAc(b1-2)Man(a1-3)[Fuc(a1-2)[Gal(a1-3)]Gal(b1-4)GlcNAc(b1-2)Man(a1-6)]Man(b1-4)GlcNAc(b1-4)GlcNAc
# In short: as §1
# [23] = biological target: Fuc(a1-2)[Gal(a1-3)]Gal(b1-4)GlcNAc(b1-2)Man(a1-3)[Fuc(a1-2)[Gal(a1-3)]Gal(b1-4)GlcNAc(b1-2)Man(a1-6)]Man(b1-4)GlcNAc(b1-4)[Fuc(a1-6)]GlcNAc
# In short: as §1
# [24] = biological target: Fuc(a1-2)[Gal(a1-3)]Gal(b1-4)GlcNAc(b1-3)GalNAc
# In short: as §1
# [25] = biological target: Fuc(a1-2)[Gal(a1-3)]Gal(b1-4)GlcNAc(b1-3)[Fuc(a1-2)[Gal(a1-3)]Gal(b1-4)GlcNAc(b1-6)]GalNAc
# In short: as §1
# [26] = biological target: Fuc(a1-2)[Gal(a1-3)]Gal(b1-4)GlcNAc(b1-6)GalNAc
# In short: as §1
# [27] = biological target: Fuc(a1-2)[Gal(a1-3)]Gal(b1-4)[Fuc(a1-3)]Glc
# In short: as §1
# [28] = biological target: Fuc(a1-2)[Gal(a1-3)]Gal(b1-4)[Fuc(a1-3)]GlcNAc
# In short: as §1
# [29] = biological target: Fuc(a1-2)[Gal(a1-3)]Gal(b1-4)[Fuc(a1-3)]GlcNAc(b1-3)GalNAc
# In short: as §1
# [30] = biological target: Fuc(a1-2)[Gal(a1-4)]Gal(b1-4)GlcNAc
# In short: as §1
# [31] = biological target: Fuc(a1-2)[GalNAc(a1-3)]Gal
# In short: as §1
# [32] = biological target: Fuc(a1-2)[GalNAc(a1-3)]Gal(b1-3)GalNAc(a1-3)[Fuc(a1-2)]Gal(b1-4)GlcNAc
# In short: as §1
# [33] = biological target: Fuc(a1-2)[GalNAc(a1-3)]Gal(b1-3)GalNAc(b1-3)Gal(a1-4)Gal(b1-4)Glc
# In short: as §1
# [34] = biological target: Fuc(a1-2)[GalNAc(a1-3)]Gal(b1-3)GlcNAc
# In short: as §1
# [35] = biological target: Fuc(a1-2)[GalNAc(a1-3)]Gal(b1-3)GlcNAc(b1-2)Man(a1-3)[Fuc(a1-2)[GalNAc(a1-3)]Gal(b1-3)GlcNAc(b1-2)Man(a1-6)]Man(b1-4)GlcNAc(b1-4)GlcNAc
# In short: as §1
# [36] = biological target: Fuc(a1-2)[GalNAc(a1-3)]Gal(b1-3)GlcNAc(b1-2)Man(a1-3)[Fuc(a1-2)[GalNAc(a1-3)]Gal(b1-3)GlcNAc(b1-2)Man(a1-6)]Man(b1-4)GlcNAc(b1-4)[Fuc(a1-6)]GlcNAc
# In short: as §1
binder,measurement,setting,value
B1,glycan array binding signal (z-score),[1],-0.153
same,glycan array binding signal (z-score),[2],-0.277
same,glycan array binding signal (z-score),[3],0.117
same,glycan array binding signal (z-score),[4],-0.122
same,glycan array binding signal (z-score),[5],-0.148
same,glycan array binding signal (z-score),[6],-0.186
same,glycan array binding signal (z-score),[7],-0.045
same,glycan array binding signal (z-score),[8],-0.336
same,glycan array binding signal (z-score),[9],-0.196
same,glycan array binding signal (z-score),[10],0.319
same,glycan array binding signal (z-score),Fuc(a1-2)Gal6S(b1-4)Glc,-0.323
same,glycan array binding signal (z-score),[11],0.059
same,glycan array binding signal (z-score),Fuc(a1-2)[Gal(a1-3)]Gal,-0.193
same,glycan array binding signal (z-score),[12],-0.015
same,glycan array binding signal (z-score),[13],-0.093
same,glycan array binding signal (z-score),[14],-0.296
same,glycan array binding signal (z-score),[15],-0.23
same,glycan array binding signal (z-score),[16],0.126
same,glycan array binding signal (z-score),[17],0.048
same,glycan array binding signal (z-score),[18],-0.005
same,glycan array binding signal (z-score),[19],0.112
same,glycan array binding signal (z-score),[20],0.106
same,glycan array binding signal (z-score),[21],-0.024
same,glycan array binding signal (z-score),[22],0.203
same,glycan array binding signal (z-score),[23],-0.186
same,glycan array binding signal (z-score),[24],-0.203
same,glycan array binding signal (z-score),[25],0.718
same,glycan array binding signal (z-score),[26],-0.327
same,glycan array binding signal (z-score),[27],-0.228
same,glycan array binding signal (z-score),[28],0.015
same,glycan array binding signal (z-score),[29],-0.269
same,glycan array binding signal (z-score),[30],-0.071
same,glycan array binding signal (z-score),[31],-0.305
same,glycan array binding signal (z-score),[32],-0.287
same,glycan array binding signal (z-score),[33],-0.125
same,glycan array binding signal (z-score),[34],0.039
same,glycan array binding signal (z-score),[35],-0.183
same,glycan array binding signal (z-score),[36],-0.022
